# Results: the supplement of paper PMC4604168 (melanoma cell lines)
# This is one part of the list. Repeats are few or missing, and single values can be far off.
# Tested on: SkMel5
# Assay: cell count relative to DMSO control; melanoma cells; higher = more viable cells
# Conditions: library dose: low library concentration; 72 h; first compound 0.4 µM
# 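Also: cell number obtained by counting DAPI-stained nuclei in high-throughput microscope images with image analysis software, screen run in 1,536-well plates.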
row,Structure (SMILES),cell count [%]
1,CCCCCCCCCCCCCCCCCCOP(=O)([O-])OC1CC[N+](C)(C)CC1 [Perifosine] + CC(C)CCN1c2nc(Nc3cc(F)c(O)c(F)c3)ncc2N(C)C(=O)C1C [BID1870] (partner dose 0.2 µM),100
2,Cn1sc(=O)n(Cc2ccccc2)c1=O + COc1cc2ncnc(Nc3ccc(Oc4ccccc4)cc3)c2cc1OC [SrcI1] (partner dose 2 µM),102
3,Cn1sc(=O)n(Cc2ccccc2)c1=O + COC(=O)c1sccc1S(=O)(=O)Nc1ccc(Nc2ccccc2)cc1OC [GSK0660] (partner dose 1 µM),100
4,Cn1sc(=O)n(Cc2ccccc2)c1=O + CC1(C)NC(=O)N(c2ccc([N+](=O)[O-])c(C(F)(F)F)c2)C1=O [nilutamide] (partner dose 1 µM),107
5,Cn1sc(=O)n(Cc2ccccc2)c1=O + COc1ccc(COc2ccc(Cc3cnc(N)nc3N)cc2OC)cc1 [GW2580] (partner dose 1 µM),91.3
6,C[C@@H](N)c1ccc(C(=O)Nc2ccnc3[nH]ccc23)cc1 + CCCCCCCCCCCC1=C(O)C(=O)C=C(O)C1=O [Embelin] (partner dose 1.2 µM),69.4
7,CCCCCCCCCCCCCCCCCCOP(=O)([O-])OC1CC[N+](C)(C)CC1 [Perifosine] + O=C(O)c1ccc(-c2c[nH]c3ncc(-c4ccccc4)cc23)cc1C1CCCC1 [GSK650394] (partner dose 0.16 µM),95.5
8,C[C@@H](N)c1ccc(C(=O)Nc2ccnc3[nH]ccc23)cc1 + CO[C@@H]1[C@H](N(C)C(=O)c2ccccc2)C[C@H]2O[C@]1(C)n1c3ccccc3c3c4c(c5c6ccccc6n2c5c31)C(=O)NC4 [Midostaurin] (partner dose 0.08 µM),83.8
9,Cn1sc(=O)n(Cc2ccccc2)c1=O + CN(NC(=O)CC(=O)NN(C)C(=S)c1ccccc1)C(=S)c1ccccc1 [STA4783] (partner dose 0.006 µM),100
10,Cn1sc(=O)n(Cc2ccccc2)c1=O + Oc1cc(-c2nc(-c3ccccc3)[nH]c2-c2ccncc2)ccc1Cl [L779450] (partner dose 0.2 µM),111
11,CCCCCCCCCCCCCCCCCCOP(=O)([O-])OC1CC[N+](C)(C)CC1 [Perifosine] + Cc1cc([N+](=O)[O-])ccc1NS(=O)(=O)c1cc(Cl)ccc1Cl [FH535] (partner dose 1 µM),85.3
12,C[C@@H](N)c1ccc(C(=O)Nc2ccnc3[nH]ccc23)cc1 + O=C(O)C(=O)Nc1sc2c(c1C(=O)O)CCNC2 [TCS401] (partner dose 1.66667 µM),91.6
13,C[C@@H](N)c1ccc(C(=O)Nc2ccnc3[nH]ccc23)cc1 + COc1ccc(COc2ccc(Cc3cnc(N)nc3N)cc2OC)cc1 [GW2580] (partner dose 1 µM),80.4
14,CCCCCCCCCCCCCCCCCCOP(=O)([O-])OC1CC[N+](C)(C)CC1 [Perifosine] + OCCn1cc(-c2cnc3nnn(Cc4ccc5ncccc5c4)c3n2)cn1 [PF04217903] (partner dose 1 µM),91.6
15,C[C@@H](N)c1ccc(C(=O)Nc2ccnc3[nH]ccc23)cc1 + CN(C)S(=O)(=O)c1ccc2c(c1)/C(=C/c1cc3c([nH]1)CCCC3)C(=O)N2 [SU6656] (partner dose 0.4 µM),85.5
16,Cn1sc(=O)n(Cc2ccccc2)c1=O + Cc1cc([N+](=O)[O-])ccc1NS(=O)(=O)c1cc(Cl)ccc1Cl [FH535] (partner dose 1 µM),82.2
17,Cn1sc(=O)n(Cc2ccccc2)c1=O + CC(C)CCN1c2nc(Nc3cc(F)c(O)c(F)c3)ncc2N(C)C(=O)C1C [BID1870] (partner dose 0.2 µM),100
18,C[C@@H](N)c1ccc(C(=O)Nc2ccnc3[nH]ccc23)cc1 + c1cc(-c2cnn3cc(-c4ccc(OCCN5CCCCC5)cc4)cnc23)ccn1 [Dorsomorphin] (partner dose 0.4 µM),71.4
19,CCCCCCCCCCCCCCCCCCOP(=O)([O-])OC1CC[N+](C)(C)CC1 [Perifosine] + CC(C)(C)c1cnc(CSc2cnc(NC(=O)C3CCNCC3)s2)o1 [SNS-032] (partner dose 0.01 µM),96.1
20,C[C@@H](N)c1ccc(C(=O)Nc2ccnc3[nH]ccc23)cc1 + O=c1cc(-c2cccc3c2Sc2ccccc2S3)oc(N2CCOCC2)c1 [KU55933] (partner dose 1 µM),90.1
21,CCCCCCCCCCCCCCCCCCOP(=O)([O-])OC1CC[N+](C)(C)CC1 [Perifosine] + C[C@@H]1CCN(C(=O)CC#N)C[C@@H]1N(C)c1ncnc2[nH]ccc12 [CP690550] (partner dose 1 µM),101
